Reference: publication PMC4336329 (PLoS ONE, 2015)
The campaign covered roughly 310,000 compounds. About 2,200 (0.71%) showed an effect of 50% or more. The effect is printed as a negative number. The list shows a part of the results.

molecular target: human ether-à-go-go-related gene (hERG) potassium channel (human, UniProt Q12809); assay: primary screen, population patch clamp on CHO cells stably expressing hERG
Sequence (Q12809 whole entry, looked up): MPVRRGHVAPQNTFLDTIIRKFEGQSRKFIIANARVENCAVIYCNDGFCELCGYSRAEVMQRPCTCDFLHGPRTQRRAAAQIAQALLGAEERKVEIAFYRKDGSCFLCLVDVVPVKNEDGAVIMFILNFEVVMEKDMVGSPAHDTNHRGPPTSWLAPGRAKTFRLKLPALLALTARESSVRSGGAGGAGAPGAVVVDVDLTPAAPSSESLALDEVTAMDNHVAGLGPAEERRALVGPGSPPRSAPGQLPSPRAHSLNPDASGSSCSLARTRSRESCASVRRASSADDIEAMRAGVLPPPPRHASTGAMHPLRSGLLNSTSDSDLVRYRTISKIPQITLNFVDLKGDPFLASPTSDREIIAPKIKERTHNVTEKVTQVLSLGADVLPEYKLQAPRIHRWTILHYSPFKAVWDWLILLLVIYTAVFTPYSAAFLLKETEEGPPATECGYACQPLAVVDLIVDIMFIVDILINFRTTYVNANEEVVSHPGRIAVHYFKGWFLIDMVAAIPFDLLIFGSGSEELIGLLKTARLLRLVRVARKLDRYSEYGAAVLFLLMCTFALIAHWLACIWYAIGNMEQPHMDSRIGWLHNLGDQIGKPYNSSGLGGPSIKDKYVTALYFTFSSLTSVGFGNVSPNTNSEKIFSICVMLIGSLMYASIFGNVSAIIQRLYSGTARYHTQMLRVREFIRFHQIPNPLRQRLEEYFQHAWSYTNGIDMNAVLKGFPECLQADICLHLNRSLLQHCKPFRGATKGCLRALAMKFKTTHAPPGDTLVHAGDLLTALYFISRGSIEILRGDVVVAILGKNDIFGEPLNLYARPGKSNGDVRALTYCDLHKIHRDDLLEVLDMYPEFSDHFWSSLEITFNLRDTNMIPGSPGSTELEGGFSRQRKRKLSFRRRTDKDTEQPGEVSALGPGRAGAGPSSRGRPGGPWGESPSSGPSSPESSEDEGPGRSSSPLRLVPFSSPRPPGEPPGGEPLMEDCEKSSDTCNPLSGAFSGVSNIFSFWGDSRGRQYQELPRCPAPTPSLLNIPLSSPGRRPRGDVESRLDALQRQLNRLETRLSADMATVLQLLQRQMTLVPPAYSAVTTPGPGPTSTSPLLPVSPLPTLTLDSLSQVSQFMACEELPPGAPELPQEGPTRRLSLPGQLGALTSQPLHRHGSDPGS

| SMILES | hERG current change (%, negative = inhibition) at 1uM [%] |
| --- | --- |
| Nn1c(SCc2ccc(F)cc2)nnc1-c1ccccn1 | 11 |
| COC(=O)c1sccc1NC(=O)CSCCc1ccccn1 | 2.84 |
| Cc1[nH][nH]c(=O)c1C(c1ccc([N+](=O)[O-])cc1)c1c(C)[nH][nH]c1=O | 16.2 |
| COc1cc(C2Nc3cc(Cl)c(S(N)(=O)=O)cc3S(=O)(=O)N2)cc(OC)c1OC (stereo not drawn) | 2.85 |
| CCCN1C(=O)/C(=C\c2ccncc2)SC1=Nc1ccccc1 | 8.22 |
| CCCCCN(C(=O)CCC(=O)OCC(=O)c1ccc(CCC)cc1)c1c(N)n(CCCC)c(=O)[nH]c1=O | 4.95 |
| COc1ccc(/C=N/NC(=O)c2cccnc2)cc1CN1CCN(c2ccc(F)cc2)CC1 | -0.578 |
| O=C(CCCSc1nc2ccccc2[nH]1)Nc1ccccc1 | 12.6 |
| COc1ccc2nc(C)cc(SCC(=O)NNC(=O)COc3ccccc3)c2c1 | 14.9 |
| CC(C)CCNC(=O)c1ccc2nc[nH]c2c1 | 4.71 |
| CCOc1ccc(C(=O)NC(=S)Nc2ccc(NC(=O)c3ccco3)cc2)cc1[N+](=O)[O-] | 12.7 |
| COc1ccc(C2CC(C(F)(F)F)n3nc(C(=O)O)c(Cl)c3N2)cc1OC (stereo not drawn) | 9.38 |
| Cc1ccc(S(=O)(=O)CCC(=O)Nc2nc(C(C)(C)C)cs2)cc1 | 10.7 |
| Cc1cccc(-n2cnc3c(sc4nc(N5CCOCC5)c5c(c43)CCCC5)c2=O)c1 | 15.6 |
| O=C(NCCCCCCNC(=O)N1CCCCCC1)N1CCCCCC1 | -0.489 |
| COc1nc(C)nc2c1sc(=S)n2C | 10.1 |
| CCc1cccc(NC(=O)c2cc(OC)c(OC)c(OC)c2)c1 | -3.13 |
| COC(=O)c1nn(C23CC4CC(CC(C4)C2)C3)c2c1C(=O)N(c1ccc(Br)cc1)C2=O | 15.7 |
| CCCCN(C)CC(O)Cn1cc(/C=C/C(=O)c2ccc(OCC)cc2)c2ccccc21 (stereo not drawn) | 9.02 |
| O=C(COC(=O)CCC(=O)c1cccs1)Nc1ccc(S(=O)(=O)N2CCOCC2)cc1 | 6.1 |
| Cc1csc(NC(=O)[C@@H]2CCCN2C(=O)c2cccs2)n1 | -2.08 |
| Cc1ccccc1-c1ccccc1N | 8 |
| Cc1cc(C)nc(SCc2nnc(SCC(=O)N3CCCc4ccccc43)o2)n1 | 3.38 |
| O=S(Cc1ccc(Cl)cc1)c1ncc(CO)n1Cc1ccccc1 (stereo not drawn) | -4.26 |
